Laboratory results from PubChem BioAssay AID540317 (National Center for Advancing Translational Sciences (NCATS), 2011).
Where “and” joins values, the source holds several entries; their conditions need not be identical. Equal values may be shown once. Hit rate of the full screen: of about 390,000 compounds, about 2,200 (0.56%) were called active. Inconclusive results, whose numbers are uncertain, are shown with a selection of clear calls. Calls follow the shape of the dose curve; as a rule, active = well fitted inhibition curve with a large enough effect; inconclusive = small, poorly fitted or top-dose-only effect; inactive = no such curve, though single readings can be large or run the other way. Potencies of inconclusive entries are doubtful fits and often do not repeat.

Target: Chromobox protein homolog 1 (Homo sapiens) (UniProt P83916)
Test: HTS for Inhibitors of HP1-beta Chromodomain Interactions with Methylated Histone Tails; also: nearly all actives have a fitted effect of over 70% in size
Conditions: AlphaScreen HP1-beta / biotin-H3K9me3 peptide binding; series mostly up to 114 µM
Summary of the method: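 Compound inhibition of the preformed complex between 50 nM HP1-beta and 50 nM biotinylated H3K9me3 peptide was read by AlphaScreen. Buffer was PBS pH 7.4 with 0.01% Tween-20. Incubations ran 30 min at room temperature, with 10 ug/mL donor/acceptor beads.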
Potency is read from the fitted curve at half-maximal effect; tags tell the direction and shape of the fitted curve.

UniProt P83916, sequence (P83916 whole entry, looked up): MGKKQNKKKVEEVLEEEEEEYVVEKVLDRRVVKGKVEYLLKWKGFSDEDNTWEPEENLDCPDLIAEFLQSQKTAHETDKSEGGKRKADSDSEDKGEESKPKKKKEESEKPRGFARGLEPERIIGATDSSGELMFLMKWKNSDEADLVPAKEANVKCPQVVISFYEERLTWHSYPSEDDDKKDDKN

Row | Structure (SMILES) | Potency
1 | CCN1CCN(c2nc(Nc3ccc(C)c(C)c3)nc(N)c2[N+](=O)[O-])CC1 | inconclusive: 44.7 µM [inhibitor, partial curve]
2 | COc1cc(/C=N/NC(=O)C(=O)/C=C2\NC(C)(C)Cc3ccccc32)ccc1O | inconclusive: 50.1 µM [inhibitor, partial curve]
3 | CCN(CC)S(=O)(=O)c1ccc(C)c(NC(=O)CN2CCN(C)CC2)c1 | inconclusive: 14.1 µM [inhibitor, partial curve, poor fit]
4 | COc1cc(/C=C2\SC(=S)N(NS(=O)(=O)c3ccccc3)C2=O)cc(OC)c1OC | inactive
5 | Cc1[nH]c2c(C)cccc2c(=O)c1CN1CCCCCC1 | inactive
6 | Cn1c(=O)cc2c3c(c(N4CCCCC4)ccc31)C(=O)c1ccccc1-2 | inconclusive: 14.1 µM [inhibitor, full curve]
7 | COc1ccc(NC(=O)C(c2cc3c(cc2[N+](=O)[O-])OCO3)N(C)c2ccccc2)cc1 (stereo not given) | inconclusive: 50.1 µM [inhibitor, partial curve]
8 | CC(=O)Oc1cccc(N2C(=O)C3C4C=CC(C4=C(C)C)C3C2=O)c1 (stereo not given) | inconclusive: 39.8 µM [inhibitor, single point]
9 | Cc1ccc(CNC(=O)C2CCCN(S(=O)(=O)c3cn(C)cn3)C2)cc1 (stereo not given) | inconclusive: 89.1 µM [inhibitor, partial curve, poor fit]
10 | COC(=O)Cn1ncc(N2C3CC(CC(C)(C)C3)C2C)c(Cl)c1=O (stereo not given) | inactive
11 | COC1CCCCC1Nc1cc(C)ccc1C (stereo not given) | inconclusive: 70.8 µM [inhibitor, single point]
12 | CSc1ccc(CNc2ccccn2)cc1 | inactive
13 | CCOc1cc(CN2CCN(S(=O)(=O)c3ccc(C)cc3)CC2)ccc1OC | inconclusive: 14.1 µM [inhibitor, partial curve, poor fit]
14 | CN(C)CCC(=O)c1cccc(Br)c1 | inconclusive: 70.8 µM [inhibitor, partial curve]
15 | CCOC(=O)c1ccc(NC(=O)c2ccccc2[N+](=O)[O-])cc1 | inconclusive: 39.8 µM [inhibitor, single point]
16 | CC(C)CC(=O)N1CCN(Cc2ccc3c(c2)OCO3)CC1 | inconclusive: 56.2 µM [inhibitor, partial curve, poor fit]
17 | O=[N+]([O-])c1c(NCCO)cc(N2CCC3(CC2)OCCO3)c2nonc12 | inactive
18 | NS(=O)(=O)c1ccc(-c2ccc(/C=N/NC(=O)c3ccccc3O)o2)cc1 | inactive
19 | CCc1ccc2c(c1)NC(c1ccc(C)cc1)=NC(c1cccs1)=N2 | inconclusive: 14.1 µM [inhibitor, full curve]
20 | O=C(NN1C(=O)/C(=C\c2cccnc2)SC1=S)C(c1ccccc1)c1ccccc1 | inconclusive: 31.6 µM [inhibitor, single point]
21 | OCCCn1c(-c2ccccc2)csc1=Nc1ccccc1 | inconclusive: 39.8 µM [inhibitor, partial curve]
22 | N#CC(=C=[N-])c1nc2ccccc2nc1-[n+]1cccc(NC(=O)c2cccs2)c1 | inactive
23 | Cn1nc(-c2ccccc2F)c2cc(C(=O)NCCc3ccc(Cl)cc3)sc21 | inactive
24 | COC(=O)Nc1nnc(-c2ccncc2)s1 | inconclusive: 28.2 µM [inhibitor, partial curve]

Row | Structure (SMILES) | Potency
25 | Cc1nc(N)sc1N=Nc1ccc(F)cc1 | inconclusive: 44.7 µM [inhibitor, partial curve]
26 | Oc1ccc(N=Nc2ccc3c(c2)OCCO3)c2cccnc12 | inconclusive: 15.8 µM [inhibitor, full curve]
27 | COc1cc(C(=S)N2CCOCC2)cc(OC)c1OC(=O)c1cc([N+](=O)[O-])cc([N+](=O)[O-])c1 | inconclusive: 12.6 µM [inhibitor, partial curve, poor fit]
28 | C=CCn1c(C)cc(C(=O)COc2ccc(C)nc2[N+](=O)[O-])c1C | inconclusive: 70.8 µM [inhibitor, partial curve]
29 | COc1cc(-c2nnc3sc(Cc4ccccc4)nn23)cc(OC)c1OC | inconclusive: 31.6 µM [inhibitor, partial curve, poor fit]
30 | O=[N+]([O-])c1cc(Cl)ccc1N1CCCCC1 | inconclusive: 44.7 µM [inhibitor, partial curve]
31 | Cc1nc2ccccc2c(=O)n1/N=C/c1ccco1 | inactive
32 | CN(C)/N=C/c1ccc(P(c2ccc(/C=N/N(C)C)o2)c2ccc(/C=N/N(C)C)o2)o1 | inconclusive: 20 µM [inhibitor, full curve]
33 | CCN(CC)S(=O)(=O)c1ccc(Cl)c(C(=O)Nc2ccc(Cl)cc2[N+](=O)[O-])c1 | inconclusive: 35.5 µM [inhibitor, partial curve]
34 | CCN(CC(=O)Nc1c(F)cccc1F)C(=O)/C=C/c1ccc(C)o1 | inactive
35 | CCN=c1scc(C)n1/N=C/c1cc(Br)c(O)c(Br)c1 | inconclusive: 44.7 µM [inhibitor, partial curve]
36 | CCN1CCN(C(=S)NCC2CCCO2)CC1 (stereo not given) | inconclusive: 14.1 µM [inhibitor, full curve, poor fit]
37 | COc1ccc(C2NC(C(=O)O)Cc3c2[nH]c2ccccc32)cc1OC (stereo not given) | inconclusive: 35.5 µM [inhibitor, partial curve, poor fit]
38 | O=C1CCCCC/C1=N/Nc1ccc(OCc2ccccc2)cc1 | inactive
39 | O=C1C2CC=CCC2C(=O)N1c1ccc(NCCc2ccccc2F)c([N+](=O)[O-])c1 (stereo not given) | inconclusive: 25.1 µM [inhibitor, single point]
40 | O=C(NCCCO)c1ccc2nc(-c3ccco3)c(-c3ccco3)nc2c1 | inconclusive: 25.1 µM [inhibitor, single point] and inconclusive: 28.2 µM [inhibitor, single point]
41 | CC(C)OCCCNC(=O)c1sc(=S)n(C)c1N | inconclusive: 14.1 µM [inhibitor, full curve, poor fit]
42 | O=C1OC(c2cccs2)=N/C1=C/c1ccc(-c2cccc(C(=O)O)c2)o1 | inconclusive: 14.1 µM [inhibitor, full curve]
43 | Cc1ccn2c(C(=O)c3ccc(Cl)cc3)cnc2c1 | inactive
44 | Cc1ccc(C(=O)NC(=S)Nc2ccccc2C)cc1 | inconclusive: 35.5 µM [inhibitor, partial curve, poor fit]
45 | Cc1ccc(CCNC(c2ccc(F)cc2)c2nnc(-c3ccccc3Cl)o2)cc1 (stereo not given) | inactive
46 | COC(=O)c1ccc(OCC(O)CNCC(c2ccc(OC)cc2)N(C)C)c(OC)c1 (stereo not given) | inactive
47 | Cc1ccc2nc3c(c(N)c2c1)CCN3c1ccccc1 | inconclusive: 44.7 µM [inhibitor, partial curve, poor fit]
48 | CCn1c(C(=O)N2CCC(C(=O)N3CCN(c4cc(C)ccc4C)CC3)CC2)cc2sccc21 | inconclusive: 15.8 µM [inhibitor, partial curve, poor fit]

Row | Structure (SMILES) | Potency
49 | CC(=O)N1CCc2cc(S(=O)(=O)NC(CC(C)C)C(=O)Nc3ccc(C(C)C)cc3)ccc21 (stereo not given) | inactive
50 | Cn1cccc1CC(=O)N/N=C/C=C/c1ccco1 | inconclusive: 50.1 µM [inhibitor, partial curve]
51 | C=CCOc1ccc(Br)cc1/C=C1/SC(=Nc2ccc(C(=O)O)cc2)NC1=O | inactive
52 | O=S(=O)(Nc1ccc(S(=O)(=O)N2CCOCC2)cc1)c1ccc(Br)cc1 | inactive
53 | Cc1nn(-c2ccccc2)c(N)c1N=Nc1ccccc1 | inconclusive: 25.1 µM [inhibitor, full curve]
54 | CCCCCCC1(C)NC(=S)N(c2ccccc2)N1 (stereo not given) | inconclusive: 28.2 µM [inhibitor, full curve]
55 | Cc1cc(C)nc(NNC2=CC(=[N+]3CCCC3)CCC2)n1 | inconclusive: 89.1 µM [inhibitor, single point]
56 | O=C(NC(=S)NCCCN1CCOCC1)c1ccco1 | inactive
57 | CCOC(=O)N1CCC(N2CCN(S(=O)(=O)c3ccc(NC(C)=O)cc3)CC2)CC1 | inconclusive: 79.4 µM [inhibitor, single point]
58 | Fc1ccccc1N1CCN(Cc2cccnc2)CC1 | inconclusive: 28.2 µM [inhibitor, full curve]
59 | COC(=O)C1=C[C@@H](C(=O)OC)C2C3=C(C(=O)[C@]2(CC(C)C)NC(=O)c2ccccc2)[C@H](C)n2c(=O)n(-c4ccccc4)c(=O)n2[C@@H]3C1 (stereo not given in full) | inactive
60 | Cc1cccc(-n2cc(CN(C)Cc3nccn3C)c(-c3cccc(F)c3)n2)c1 | inconclusive: 31.6 µM [inhibitor, partial curve]
61 | CCOC(=O)C(=N/O)/C(C)=N/NC(C)=O | inactive
62 | N#Cc1c(-c2cccnc2)c2c([nH]c1=S)CCCC2 | inconclusive: 39.8 µM [inhibitor, single point]
63 | COc1ccccc1NCC(=O)N/N=C/c1sccc1C | inconclusive: 79.4 µM [inhibitor, partial curve]
64 | COc1cc(OC)c(OC)cc1/C=N/NC(=O)c1cnccn1 | inactive
65 | NNc1cc(C(=O)O)ccc1Cl | inconclusive: 70.8 µM [inhibitor, partial curve]
66 | CC(=O)NC1CC(=O)N(c2ccc3c(c2)OCCO3)C1 (stereo not given) | inactive
67 | COc1cc(/C=C/C(=O)OC(C)C(=O)NC2CCCCC2C)cc(Cl)c1OC (stereo not given) | inactive
68 | CCCn1c2ccccc2c2nnc(SCC(=O)Nc3cccc(C(C)=O)c3)nc21 | inactive
69 | O=C1NCCCC2c3c(cc(Br)c(O)c3Br)OC12N1CCCCC1 (stereo not given) | inconclusive: 100 µM [inhibitor, single point]
70 | CCNc1nc(NC(N)=S)nc(NC(C)(C)C)n1 | inconclusive: 44.7 µM [inhibitor, partial curve]
